Assay results: PubChem BioAssay AID1159614 (National Center for Advancing Translational Sciences (NCATS), 2016)
Out of some 45,000 compounds screened, about 65 (0.1%) were called active. The call rests on the fitted dose curve; in most records, active means well fitted activation curve with a large enough effect; inconclusive means small, poorly fitted or top-dose-only effect; inactive means no such curve, though single readings can be large or run the other way. Some of the results follow.

The compounds below were run against Galactocerebrosidase (Homo sapiens) (UniProt P54803) (assay: A Novel Cell-Based Assay to Identify Small Molecules for B -Galactocerebrosidase). Settings: 145M-Twi-hGALC-G270D cells (Twitcher mouse brain line with human GALC G270D), HMU-beta-Gal fluorescence, 48 h; series mostly up to 57.5 µM; activation: at the top concentration.
Outline: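 Fluorogenic HMU-b-Gal hydrolysis (0.1 mM final, pH 5.2 citrate-phosphate with 1 mg/mL sodium taurocholate; carbonate stop buffer) measures mutant GALC activity after compound treatment of live 145M-Twi Twitcher brain cells stably carrying human GALC-G270D, with wild-type GALC line alongside; activation sought.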
Further: 0% is about no effect; nearly all actives have a fitted effect of over 65% in size.

UniProt P54803, sequence (P54803 whole entry, looked up): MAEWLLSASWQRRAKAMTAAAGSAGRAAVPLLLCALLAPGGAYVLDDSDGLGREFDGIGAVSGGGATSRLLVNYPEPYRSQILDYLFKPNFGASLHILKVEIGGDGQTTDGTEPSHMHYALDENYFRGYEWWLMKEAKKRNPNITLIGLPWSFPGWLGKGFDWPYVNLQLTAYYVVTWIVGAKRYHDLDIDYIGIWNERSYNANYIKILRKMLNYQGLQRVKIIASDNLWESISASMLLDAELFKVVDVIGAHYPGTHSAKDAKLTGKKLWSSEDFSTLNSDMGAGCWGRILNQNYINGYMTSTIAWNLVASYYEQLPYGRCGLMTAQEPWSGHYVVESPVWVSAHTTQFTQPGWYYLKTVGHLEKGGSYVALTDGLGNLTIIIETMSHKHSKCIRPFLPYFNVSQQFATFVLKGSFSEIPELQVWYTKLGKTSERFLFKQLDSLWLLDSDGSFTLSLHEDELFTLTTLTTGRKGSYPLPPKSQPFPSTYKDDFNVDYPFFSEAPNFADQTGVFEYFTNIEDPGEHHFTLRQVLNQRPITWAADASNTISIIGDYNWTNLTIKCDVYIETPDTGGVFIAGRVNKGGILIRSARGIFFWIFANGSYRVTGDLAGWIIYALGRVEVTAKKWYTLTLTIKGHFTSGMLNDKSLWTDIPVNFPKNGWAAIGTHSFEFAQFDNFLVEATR

activation, inactive:
Cc1cccc(Oc2nc3c(C)cccn3c(=O)c2/C=C(\C#N)c2nc3ccccc3[nH]2)c1 -21.8%
COc1cc(Cl)c(NC(=O)CCS(=O)(=O)c2cc3c(cc2Cl)NC(=O)CO3)c(OC)c1 -11.8%
COc1ccc(OC)c2sc(N3CCN(C(=O)C(C)(C)C)CC3)nc12 -4.62%
COc1cc(-c2cc(OC)c3c(C)oc(C)c3c(=O)c2)ccc1OC(=O)c1ccccc1Cl 1.83%
COc1ccc(CNS(=O)(=O)c2cnc(N)nc2)c(OC)c1 2.01%
Cc1ccc2c(Sc3ccc(Cl)cc3)c(C(=O)N3CCC(C)CC3)[nH]c2c1 -11%
CCN(CC)CCNC(=O)c1ccc(Cn2c(SCc3ccccc3)nc3cccnc32)cc1 -17.8%
CS(=O)(=O)c1ccc(-c2nnc(NC(=O)c3ccc4c(c3)OCCO4)o2)cc1 -16.3%
COc1ccccc1CNC(=O)C1CCC(CNS(=O)(=O)c2ccc3c(c2)CCCC(=O)N3)CC1 (configuration not stated) -9.29%
COCCCNC(=O)c1ccc(NC(=O)c2nsc3ccccc23)cc1 -22.8%
Cc1ccc(N2C(=O)CSC23C(=O)N(CC(=O)NCc2ccccc2)c2ccccc23)cc1C (configuration not stated) -21.8%
CNC(=O)c1c(NC(=O)c2ccc(S(=O)(=O)N3CCC(C)CC3)cc2)sc2c1CCC2 18.2%
Cc1cccc(C)c1OCC(=O)NCC1(N(C)C)CCCCC1 -5.02%
COc1ccc(CNC(=O)c2ccc(N3CCCC3)c(NC(=O)NCc3ccc(F)cc3)c2)cc1 -24.6%
CCOc1cc(CNC(=O)c2sc3ncnc(N(C)C4CCCCC4)c3c2C)ccc1OC -1.47%
CC(=O)c1ccc(NC(=O)Cn2cc(S(=O)(=O)Cc3cccc(Cl)c3)c3ccccc32)cc1 -10.5%
CCc1nc2ccccc2n1CCCCOc1ccc(C)cc1 -15.3%
CCC1CN(C(=O)N2CCC(C(=O)NCCN(CC)CC)CC2)c2cc(C)ccc2O1 (configuration not stated) -6.84%
Cc1ccc(N(CC(=O)Nc2cccc(Cl)c2)S(=O)(=O)c2cccs2)cc1 -9.11%
CCN(Cc1ccccc1)S(=O)(=O)c1ccc2c(c1)CC(C)N2C(=O)C1CCC1 (configuration not stated) -16.7%
Oc1ccc(/C=C/c2cc(O)cc(O)c2)cc1 -11.2%
CC(=O)C1=C(c2ccc(Cl)cc2)N(C(C)=O)n2c(nnc2C2CCCCC2)S1 0.526%
Cc1ccc(Cl)cc1N(C)C(=O)c1cn(C2CCCCC2)c(=O)c2c1c1ccccc1n2C -14.5%
COc1cccc(CNC(=O)c2cc3c(=O)oc4ccc(C)cc4c3s2)c1 -22.2%
Cc1ccc2onc(CC(=O)Nc3ccc(C(C)C)cc3)c2c1 -16.1%
O=c1c2oc3ccccc3c2n(Cc2ccccc2F)c(=O)n1Cc1ccccc1 -15.2%
Cc1ccc2c(c1)N(CCC(=O)NCc1ccccc1Cl)C(=O)CO2 -6.6%
CCOc1ccc(OCC)c(NS(=O)(=O)c2ccc(-c3coc(C)n3)cc2)c1 -22.6%
Cn1c(=O)[nH]c(=O)c2c1nc(NCCc1ccccc1)n2Cc1ccc(F)cc1 -18.1%
COc1ccc(NC(=O)c2c(NC(=O)c3ccc(Br)cc3)sc3c2CCCC3)cc1 8.73%
COc1ccc(-c2nnc(SCc3cccc(Cl)c3)o2)cc1 -1.32%
CC(=O)N1CCC(N(Cc2ccc(C)o2)C(=O)Nc2ccc(C)cc2)CC1 -8.57%
CCOc1ccccc1NC(=O)Cc1noc2ccc(C)cc12 -14.3%
CCOc1ccc2nc(NC(=O)c3nc(SC)ncc3Cl)sc2c1 -16%
COc1cc(NC(=O)c2cn(C3CCCC3)c(=O)c3c2c2ccccc2n3C)cc(OC)c1OC -17.1%
Cc1ccc(O)c(NC(=O)c2cc(-c3ccccc3O)no2)c1 -17.4%
Cc1cc(NC(=O)Nc2nnc(N(C)Cc3ccccc3)s2)ccc1Br -15.7%
Cn1cc(S(=O)(=O)N2CCOCC2)cc1C(=O)Nc1ccc(Cl)c(C(F)(F)F)c1 -4.59%
COc1cccc(C2C(C(=O)Nc3ccc(C)cc3C)=C(C)Nc3nc4ccccc4n32)c1OC (configuration not stated) -3.04%
COc1ccc2nc(N(Cc3cccnc3)C(=O)C3CCCCC3)sc2c1 -3.25%
COc1ccc(N2CCN(CCCNC(=O)Cn3c(-c4cccs4)cc4ccccc43)CC2)cc1 -12.6%
CCOc1ccc(CNS(=O)(=O)c2ccc(-c3coc(C)n3)cc2)cc1 -7.26%
Cc1nc2ccc(S(=O)(=O)N(C)CC(=O)Nc3cccc(C(F)(F)F)c3)cc2s1 1.69%
CCOC(=O)c1cc(S(=O)(=O)N2CCN(c3ccccc3F)CC2)[nH]n1 -6.11%
CCCCNC(=O)c1cccc(-n2c(C)nc3cccnc32)c1 -17.4%
CC(NC(=O)C1CCN(c2nc3ccccc3nc2C(F)(F)F)CC1)c1ccccc1 (configuration not stated) -4.1%
CCOc1cc(C(=O)N2CCn3c4c(c5cc(C)ccc53)CCCC42)cc(OCC)c1OCC (configuration not stated) -10.1%
COc1ccc(N(C(=O)c2cccc(C)c2)S(=O)(=O)c2ccc(Cl)cc2)cc1 -18.2%
Fc1ccc2c(c1)-c1nc(-c3ccccc3)cc(-c3ccccc3)c1CO2 -10.5%
CCCCN1C(C(=O)c2ccccc2)=C(OC(C)=O)c2ccccc2S1(=O)=O -12.5%
CN(C)c1ccc(CNC(=O)CCS(=O)(=O)c2ccc3c(c2)oc(=O)n3C)cc1 -12.4%
COc1ccc(NC(=O)CNC(=O)Cn2c(C)cc3ccccc3c2=O)cc1OC -13.1%
O=C(Nc1sc2c(c1C(=O)N1CCCCC1)CCCC2)c1ccccc1Cl -13%
Cc1noc(Cn2c(=O)c3cc4c(cc3n(CC(=O)Nc3ccccc3Br)c2=O)OCO4)n1 -14.5%
Cc1ccc2c(=O)cc(C(=O)Nc3sc4c(c3C(=O)NCc3ccccc3)CCCC4)oc2c1C -12.7%
O=C(CN1C(=O)CCc2cc(S(=O)(=O)N3CCOCC3)ccc21)Nc1cccc(C(F)(F)F)c1 -3.87%
CCOc1cccc(C(=O)Nc2cc(-c3ccc(C)cc3)no2)c1 -21.2%
CCCCCCOc1ccc(C2C(=O)N(C3CCCCC3)CC(=O)N2CCCC)cc1 (configuration not stated) -2.06%
CCCS(=O)(=O)N1CCCC(C(=O)NCCOC)C1 (configuration not stated) -3.37%
Cc1ccccc1CNC(=O)CN(c1cccc(C)c1C)S(C)(=O)=O 7.35%
CCCCN(CCCC)C1=C(C(=O)c2ccccc2)N(C)S(=O)(=O)c2ccccc21 -0.485%
CCOc1ccc(-c2nc(Cn3ccn4nc(-c5ccc(OCC)c(Cl)c5)cc4c3=O)c(C)o2)cc1 14.5%
COc1ccccc1/C=C/c1nc(C#N)c(NCCc2ccccc2)o1 -9.06%
Cc1ccccc1Nc1cc(C(=O)NCc2cccs2)c2ccccc2n1 -9.92%
C=C(C)Cn1c(=O)c2c(nc3n2CCN3c2ccc(F)cc2)n(C)c1=O -11.4%
CCOc1ccc(NCc2cccn2-c2nnc(N3CCC(C(=O)NCCOC)CC3)s2)cc1 -5.57%
Cc1cc(=O)n2nc(N3CCC(C(=O)NCc4ccc(F)cc4)CC3)sc2n1 -12.2%
COc1ccc(Nc2ncc(C(=O)N3CCN(c4ccc(F)cc4)CC3)c3ccccc23)cc1 -5.59%
COc1ccc(C)cc1N(C)C(=O)c1c2c(nc3ccccc13)C(=O)N(C1CCCCC1)C2 -14.7%
COc1ccc(CNS(=O)(=O)c2ccc(-c3cnc(C4CC4)o3)cc2)cc1 -16.4%
Cc1cccc(OCCn2c(SCC(=O)O)nc3ccccc32)c1 -18.1%
CCOc1ccc(N(CC)S(=O)(=O)N2CCCC(C(=O)Nc3cc(Cl)ccc3OC)C2)cc1 (configuration not stated) -10.9%
CCOC(=O)c1ccc(NC2SC(=O)N(Cc3cccc(C(=O)O)c3)C2=O)cc1 (configuration not stated) -1.56%
COc1cc2nc(SCC(=O)Nc3ccccc3F)n3nc(-c4ccccc4)nc3c2cc1OC -20.6%
CCN(CC)CCNC(=O)c1c(C)[nH]c(/C=C2\C(=O)Nc3ccc(F)cc32)c1C -19.6%
COc1ccc(-c2nc3scc(CCNS(=O)(=O)c4ccc(NC(C)=O)cc4)n3n2)cc1 -9.98%
COc1ccccc1C(=O)N1CCN(Cc2cc(=O)oc3cc(C)ccc23)CC1 -9.46%
COc1ccc(-c2nc3ccc(NS(=O)(=O)c4ccc(Cl)cc4)cc3o2)cc1 -7.97%
Cc1ccc(CNC(=O)c2ccc(CSCc3ccccc3C)o2)cc1 -6.9%
CCOc1ccc(Cn2c(CNS(=O)(=O)c3cccc(Cl)c3)nc3cccnc32)cc1 -7.44%
CCc1ccc(NC(=O)CSc2nc3c(sc4ccccc43)c(=O)n2CCCOC(C)C)cc1 20.9%
Cn1c(=O)[nH]c2cc(-c3noc(-c4cccc(Cl)c4)n3)ccc21 0.979%
CCOc1cccc(C(=O)N(Cc2ccc(CC)cc2)C2CCS(=O)(=O)C2)c1 (configuration not stated) -9.55%
CCCNC(=O)Cn1nc(-c2ccc(F)cc2)c2cnc3ccc(F)cc3c21 -16.8%
COc1ccccc1NC(=O)CSC1=Nc2ccccc2C2=NC(CCC(=O)NCc3cccs3)C(=O)N12 (configuration not stated) -6.74%
COc1ccc(-n2cc(C(=O)NCc3ccccc3Cl)c3ccccc3c2=O)cc1 -3.54%
CCCCN(CC)C(=O)Cn1ncc2c3ccccc3n(CCC)c2c1=O -6%
CCC(C)NC(=O)c1cccc(NC(=O)c2nsc3ccccc23)c1 (configuration not stated) -12.1%
CC(Sc1cn(CCNC(=O)c2ccccc2F)c2ccccc12)c1ccccc1 (configuration not stated) -40.9%
CCN(CCCNC(=O)CSc1cc(=O)n(CC)c2ccccc12)c1cccc(C)c1 -7.43%
Cc1ccc(NC(=O)c2c(C)oc3nc(C)nc(N4CCCC4)c23)c(C)c1 -13.8%
Cc1ccc(C)c(OCC(=O)Nc2ccc(S(=O)(=O)Nc3onc(C)c3C)cc2)c1C -15.1%
CCC(C(=O)Nc1ccccc1OC)n1nc(C)c2sc3ccccc3c2c1=O (configuration not stated) -3.67%
O=S(=O)(c1ccc(F)cc1)N(Cc1nc(-c2ccc(Cl)cc2)no1)C1CCCCC1 -8.21%
COC(=O)c1ccc(NC(=O)CSc2ncc3c(n2)-c2cc(Cl)ccc2N(Cc2ccccc2)S3(=O)=O)cc1 -11.2%
COc1ccc(C)cc1NC(=O)Cn1c(=O)ccc2cc(S(=O)(=O)N3CCC(C)CC3)ccc21 -0.988%
CCOc1ccc(CCNC(=O)c2ccc(CS(=O)Cc3cccc(Cl)c3)o2)cc1 (configuration not stated) 1.06%
